Test results taken from patent publication US20250051755A1 (published 2025).

B1: a-Her2 (1A68) VHH-hIgG1-Fc (Fc fusion)
chain: QVQLQQFGGGLVKTGDSLRLSCAASGRSFRSYAMGWFRQNPGKERRFVAGVSWSGDITSYADSVKGRFIISRDNDKSTVYLQMHSLKAEDTAIYYCGARLGGAISEVADPYDYWGQGTLVTVSS[letters of human IgG1 Fc not shown]
B2: a-Her2 (1A12) VHH-hIgG1-Fc (Fc fusion)
chain: QVQLQESGGGLVQAGGSLRLSCAASGRTISNAFMGWYHQAPGEQREFVATISTTGTTNYRNSVKGRFTISRDNAKNTVYLQMNNLKPEDMGTYYCRHFGYDVWGQGTQVTVSS[letters of human IgG1 Fc not shown]
B3: a-Her2 (1A100) VHH-hIgG1-Fc (Fc fusion)
chain: QVQLQESGGGLVQAGDSLKLSCAASGDTFSRYAMAWFRQAPGKEREFVAAVSWSGGITHYADSLKGRFTISRDSAKNTVYLQMNSLKPDDTAIYYCTQDTIPGGAAREFRGYWGQGTQVTVSS[letters of human IgG1 Fc not shown]
B4: a-Her2 (1A51) VHH-hIgG1-Fc (Fc fusion)
chain: QVQLQESGGGLVQAGGSLRLSCAGSGRTFSLYSMGWFRQSAGKAREFVASINWNGEVTEYADSVKGRFIISKANANKTMSLQMNSLKFEDTGVYYCAAAPRFESTWLADYWGQGTQVTVSS[letters of human IgG1 Fc not shown]
B5: a-Her2 (1A11) VHH-hIgG1-Fc (Fc fusion)
chain: QVQLQESGGGLVQAGGSLKLSCAASGRAFIDNVMGWFRRAPGKEREFVAGLSRTGANTMYQDSVKGRFTISRDDAKNTLYLQMNSLKPEDTAVYYCAARSQGATVVITTTGGYDYWGQGTQVTVSS[letters of human IgG1 Fc not shown]

Each binder was assayed against Her2 (UniProt P04626) (assay: FACS binding to SKOV3 cells).
For B1, the Kd was 42 nM.
For B2, the Kd was 8 nM.
For B3, the Kd was 2 nM.
For B4, the Kd was 1 nM.
B5 gave a Kd of 1 nM.
